Assay results: publication PMC12136788
The other results are listed elsewhere or left out.

T1: UNK ZnF1-3 (human, UniProt Q9C0B0 31-174)
T1 sequence: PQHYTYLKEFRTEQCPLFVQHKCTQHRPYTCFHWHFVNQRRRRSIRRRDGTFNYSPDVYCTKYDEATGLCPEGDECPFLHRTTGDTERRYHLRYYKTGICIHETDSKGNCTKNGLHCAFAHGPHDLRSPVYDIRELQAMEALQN

B1: chr1:39494564:39494565:+_ENSG00000168653_ENST00000372967|hu_hu|hu_hu_hu_mus_True|58_68 (ssRNA)
RNA: GGGAGUUCUACAGUCCGACGAUCAUGCAUUCGCCUCAUCGUUUUGUACCGAAGCAAGCACUCUUCGAAAUCAUCAUAUUCUAUCUUGCACUCCUUUUUCGCCCGGGUCCCACCGAUCCCGUGUGCACACUCUAUCCACUCUUUCAACAGAGGAUUGAGCAUCA
B2: chr17:35253193:35253194:-_ENSMUSG00000024387_ENSMUST00000025246|mus_hu|motif|central (ssRNA)
RNA: GGGAGUUCUACAGUCCGACGAUCCCUUUUCUUCUACUUUAUUUCAUAUUCCCACCACGAUAACGACUCCUUUAAUUUAAACGGAAAACCAUACAGGGUUCCUGAAAGGGUGGCAAAAAAGAAAGGAAAAGUCAAAGACUGCAGCAACAGAGGAUUGAGCAUCA
B3: 119173889_119174009_6555_3pUTR_ENSG00000110395_ENST00000264033|human|control|control (ssRNA)
RNA: GGGAGUUCUACAGUCCGACGAUCUCAGAAAGGCCAACGGCAAGAAGAGGGACUUAUAGUUUGAGAAGGUCUAUAAUCUUCUGACUUUAAUGACGUGAGGUAGGAGAAUAUUCUGCUUUAUCACCAUUGCUGAACACCUACAAACAACAGAGGAUUGAGCAUCA
B4: chr3:132390928:132390929:+_ENSG00000081307_ENST00000264991|hu_hu|motif|central (ssRNA)
RNA: GGGAGUUCUACAGUCCGACGAUCACUGGCUGCACAAACACCUUCUCGUUUCAGAGUCUUUUCAUCAAUAUUUGCAGCAACGGCAAGUGGUGGAGCACACGCAAAACAAGCAGAUUCUCCAGGAAUUAUAAGCUGUAUAUGCCCCAACAGAGGAUUGAGCAUCA
B5: chr14:103931940:103931941:+_ENSG00000075413_ENST00000216288|hu_mus|motif|central (ssRNA)
RNA: GGGAGUUCUACAGUCCGACGAUCACAAAACGUGUCUAGUUUACUGCCAACAGUAAAUUCAUUGCUAAAACCAAAAUCUGCGGUUUUAAUGUUCAUAUCCGCAUCUAAUAACAGAUUUUCAGCCUUGAGGUCUCUGUGAACAAUCAACAGAGGAUUGAGCAUCA
B6: chr19:36933551:36933552:+_ENSMUSG00000024811_ENSMUST00000025729|mus_mus|FALSE|FALSE (ssRNA)
RNA: GGGAGUUCUACAGUCCGACGAUCAUGGCCUUUAAAUUCAUACGAUAAUCUUUCCUUCAGCUGUGCCGUGGGGGCCAGGUCUAUAGCACUUUUAUUGUGACAGUUCAGCAGGGUUGGAUCUGCCCCGUAACUUAGGAGGAGAGACAACAGAGGAUUGAGCAUCA
B7: chr14:59854306:59854307:+_ENSMUSG00000035469_ENSMUST00000043227|mus_hu|FALSE|FALSE (ssRNA)
RNA: GGGAGUUCUACAGUCCGACGAUCAAUGGGCUCAAGAAAAGCCGUACACCCUUGUUAUGUUCCUACACAAACAACUGUGUCCCAGAUGUGGAAAAAAACAACCUGAUGGUCUUUUACCUGCAGAAUCACAUCACCCGUAGAGCACAACAGAGGAUUGAGCAUCA
B8: chr15:43486971:43486972:+_ENSG00000166946_ENST00000300213|hu_mus|motif|central (ssRNA)
RNA: GGGAGUUCUACAGUCCGACGAUCGAGCGCCUUAAUUCUGUUCAUGCAAUGGUCAACGGCAUUAAUGAGUAAAGGAAUCCAGCGGUCUCCUGGGUGGGGGCUCACGUGACUUGCUUUUGUAAUUUCAAGAGCCUUUAUUAAAACCAACAGAGGAUUGAGCAUCA
B9: chr4:95690885:95690886:+_ENSMUSG00000028572_ENSMUST00000156910|mus_mus|mus_mus_mus_hu_False|38_38 (ssRNA)
RNA: GGGAGUUCUACAGUCCGACGAUCUUUAGAAAAUGUUAAAUACCAUGCUAAAAUAUUUUCAAAGGCUUAUUUUAUUUUACCAGAAGUCACAGGCAAGCAGACACCAUAAGAAUAUAUGAAAAUGAAACUCAACAAUAUAACUGUCAACAGAGGAUUGAGCAUCA
B10: chr15:98516890:98516891:+_ENSG00000140450_ENST00000268042|hu_hu|motif|central (ssRNA)
RNA: GGGAGUUCUACAGUCCGACGAUCAAUAAUAAAAAUAAGAAAGCUUUCAUAGUUAACUUACCAAAAACAUAACGCUUGCCGGUUGUUUCUUACUGUGCAAAACAAAAACAAAGUUUUGCCCACAGAAGGAUUUUGUGCACCAAACAACAGAGGAUUGAGCAUCA
B11: chr10:5944071:5944072:+_ENSMUSG00000019763_ENSMUST00000042251|mus_mus|FALSE|FALSE (ssRNA)
RNA: GGGAGUUCUACAGUCCGACGAUCUCCCCAGCAUCUCUGCAGAGAGCUGGAAAGAAAGGCCACACACUCGCCUUGGCAGUACUAGCAAGCACAGCAUCAGCAAGAUGUCACUGAAUGUGUAUUCUCUGGUGUAGUCGGCCAAGGCAACAGAGGAUUGAGCAUCA
B12: 123525202_123525322_3127_3pUTR_ENSG00000119402_ENST00000608872|human|control|control (ssRNA)
RNA: GGGAGUUCUACAGUCCGACGAUCCUACUGCUUGCUCCCUCUACUCUCUCCCUGAUUGUGACCACUAACAUUUCCACUGCUGAAUCACAAAAUUACCUAACUUUAGAGAGGGAGGAGGACACAAUCUGGCAACCCAGGGACAUGCAACAGAGGAUUGAGCAUCA
B13: chr19:16212804:16212805:+_ENSG00000167460_ENST00000300933|hu_mus|hu_hu_hu_mus_False|1_88 (ssRNA)
RNA: GGGAGUUCUACAGUCCGACGAUCAACAAUUCUGGAGUGAAGGAAAGCAUCAAGGAUGAACAGCAUUAAAGCUCAGUCAGAAGGCACAUGGGCAACAAUGAUCACCCCAGCAUUCUCGCUUGGAAUGCUUAAAGACAGAUGUUUCAACAGAGGAUUGAGCAUCA
B14: 6597745_6597865_437_ncRNA_ENSMUSG00000021196_ENSMUST00000144053|mouse|control|control (ssRNA)
RNA: GGGAGUUCUACAGUCCGACGAUCACAUCAAAAGGAGUUUCAGCAGAAUAGACAAUUUACUGGUUUAAUUUAUCAGAAUUGAGCUAGUCUUGUGCUACAUCUUGCUACCCUGCUAUUCUGUGUUUCAGGACAAUGGGUUUGUGUCAACAGAGGAUUGAGCAUCA
B15: 17162015_17163372_1340_CDS_ENSG00000003987_ENST00000180173|human|control|control (ssRNA)
RNA: GGGAGUUCUACAGUCCGACGAUCUCUUUCUUGAAUCUUGAGUUCUCGUCUCUCCUUUUGGCUGUUACAUAGGAAGUUUCCAAACUGGCAGGAAUAAAUGUGAUGUUGAAUGUGAAUCAAAAACCUCUCAUUGAACUCAAAGGCCAACAGAGGAUUGAGCAUCA
B16: 89368891_89370784_2555_CDS_ENSMUSG00000031652_ENSMUST00000034074|mouse|control|control (ssRNA)
RNA: GGGAGUUCUACAGUCCGACGAUCGUCAAAUGUGCCCACACUUGGCAGGGCAUUGAGUAGCGGCUGCAUGUGUCUAAGAAAGGCCUCCUUUCGAAGAAAUUCUUCUAGCCGAGGUCCGUUUCUUCCCAGAGGGUCAUCAGGAACCAACAGAGGAUUGAGCAUCA
B17: chr9:14812383:14812384:-_ENSMUSG00000031934_ENSMUST00000164273|mus_mus|mus_mus_mus_hu_True|1_48 (ssRNA)
RNA: GGGAGUUCUACAGUCCGACGAUCAUAGCCCAGGUAGAUACACGCUAACAGUAUAAUGAUGAGUGUCAGCAGGCGGCAGCUAAUGUAUUUCAUGAUUAAAUUAUUAGAAUUUUUCUUUGUCUUCAAGUACUGCUCCACGAUUGGCAACAGAGGAUUGAGCAUCA
B18: chr2:198351390:198351391:-_ENSG00000144381_ENST00000345042|hu_hu|hu_hu_hu_mus_False|58_58 (ssRNA)
RNA: GGGAGUUCUACAGUCCGACGAUCUCAUUCCCACCCUCCACAGAAAGGCUGCUUCUGAACUCUCAUGUGGUGACACAGCACUAAAAUCCUGAUGCUCACAGAACAGUAGAGAUGCCUCAGUGAUUUAAGUUGAAAGCAGGACACCAACAGAGGAUUGAGCAUCA
B19: chr12:39763582:39763583:-_ENSG00000139116_ENST00000544797|hu_mus|hu_hu_hu_mus_False|8_58 (ssRNA)
RNA: GGGAGUUCUACAGUCCGACGAUCCUCUAGGAACUGGGCAUUCACUUUGAAUUCAGGAGGGGGCAGCCCGUUUUUAAUUGCUAUGUGCUUUUUCUCAUCAAUACUCUUGAACAGGUGUCUAACAGCACGAGAAAUAAUGCCCUGCAACAGAGGAUUGAGCAUCA
B20: chr17:30526466:30526467:+_ENSG00000126858_ENST00000394692|hu_mus|FALSE|FALSE (ssRNA)
RNA: GGGAGUUCUACAGUCCGACGAUCGUAAGGAAAAACUUGAAAUAAAUCUUUAAGUUCAUCAGGCGACAAAGCACAGUCUCUGUCCAAAUCAUGUUUGUCAAAGGUGCUCUGGAGAAACAAAUAUGCAUGAUGAUUUAAUUCAGUCAACAGAGGAUUGAGCAUCA
B21: chr2:232320318:232320319:-_ENSG00000115053_ENST00000322723|hu_hu|hu_hu_hu_mus_True|18_68 (ssRNA)
RNA: GGGAGUUCUACAGUCCGACGAUCACUAUUAAAGUCUACAAAACCAAACCCUUUGGAAGAACCAGUUUCCCGGUCAGUGACUAUUCUUGCACGAACAGAGCCCUCAAAUGAUUCUUUUAAUGUCUCUUCAGUGGUAUCCUCAGACAACAGAGGAUUGAGCAUCA
B22: 7343312_7343432_582_5pUTR_ENSMUSG00000024968_ENSMUST00000066646|mouse|control|control (ssRNA)
RNA: GGGAGUUCUACAGUCCGACGAUCGAGGGGCACGGGAUCCUUUGGAGAGCGCAGGAGCUUGCCGCGCUUGCCUCGAGUGCUGCGCCUGGCCCGGCCUGGAGGGGUCGCCACUGAGGCUACGAGAGGCAGGAGGUCAGCGUGGCUCAACAGAGGAUUGAGCAUCA

What follows are binders tested against T1, UNK ZnF1-3 (assay: nsRBNS (natural sequence RNA bind-n-seq); RBNS binding buffer (assumed for nsRBNS): 25 mM Tris pH 7.5, 150 mM KCl, 3 mM MgCl2, 0.01% Triton X-100, 500 ug/ml BSA, 20 U/ml SUPERase-In, 4 C; UNK is unkempt and MSI1 is Musashi-1; names of the RNAs are library labels; protein concentration not given here; high values mean tight binding).

First: B1
Second: B2
The binding signal of the first is lower: 0.728 enrichment R for the first, 1.47 enrichment R for the second.

First: B3
Second: B4
The binding signal of the first is lower: 1.5 enrichment R for the first, 1.81 enrichment R for the second.

Compared with B5, B6 is higher in binding signal: 0.589 enrichment R for the first, 1.04 enrichment R for the second.

First: B7
Second: B8
The binding signal of the first is lower: 0.971 enrichment R for the first, 1.37 enrichment R for the second.

Compared with B9, B10 is higher in binding signal: 1.69 enrichment R for the first, 2.25 enrichment R for the second.

First: B11
Second: B12
The binding signal of the first is lower: 0.888 enrichment R for the first, 0.98 enrichment R for the second.

Going from B13 to B14, the binding signal falls from 1.63 enrichment R to 1.03 enrichment R.

Going from B15 to B16, the binding signal falls from 1.52 enrichment R to 1.09 enrichment R.

Compared with B17, B18 is lower in binding signal: 2.38 enrichment R for the first, 1.26 enrichment R for the second.

Going from B19 to B20, the binding signal falls from 1.73 enrichment R to 1.04 enrichment R.

First: B21
Second: B22
The binding signal of the first is higher: 1 enrichment R for the first, 0.766 enrichment R for the second.
